Assay results taken from article PMC7937689.
Results are given in words; binding and its absence hold for the method and conditions named. Binding seen in cells or lysates may run through a third protein. Some results given as binding are weak or reduced against the parent protein; the word gives no strength. Sequences can lack the tags named with a protein. Each block holds one molecule with its values, some of them ahead of it.

Amino acid sequences for entries named in this document (tags omitted). A change or cut given only in a name is not applied to a line headed by its entry. Chains listed by the source or under a name are the forms on record and can include a tag or linker.
Cherry-FLAG-ATG16L1 (Q8C0J2-3, form named): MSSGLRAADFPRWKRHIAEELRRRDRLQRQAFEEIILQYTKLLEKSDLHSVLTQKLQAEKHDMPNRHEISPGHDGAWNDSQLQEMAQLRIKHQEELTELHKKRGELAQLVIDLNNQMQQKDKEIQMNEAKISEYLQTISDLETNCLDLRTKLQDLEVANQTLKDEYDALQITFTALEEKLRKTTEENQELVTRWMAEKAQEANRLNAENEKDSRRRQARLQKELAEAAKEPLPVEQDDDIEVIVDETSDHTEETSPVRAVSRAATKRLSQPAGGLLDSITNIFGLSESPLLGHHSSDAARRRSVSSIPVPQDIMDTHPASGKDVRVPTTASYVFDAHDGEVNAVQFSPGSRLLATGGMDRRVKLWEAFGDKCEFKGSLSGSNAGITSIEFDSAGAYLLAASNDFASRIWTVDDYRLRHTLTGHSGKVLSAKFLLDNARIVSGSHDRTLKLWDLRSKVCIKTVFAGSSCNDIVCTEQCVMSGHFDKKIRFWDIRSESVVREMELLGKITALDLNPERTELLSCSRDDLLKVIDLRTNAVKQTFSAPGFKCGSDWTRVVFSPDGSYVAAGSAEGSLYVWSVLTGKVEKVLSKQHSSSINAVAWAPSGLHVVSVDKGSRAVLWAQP
GFP-N-ATG16L1 (Q8C0J2-3, form named): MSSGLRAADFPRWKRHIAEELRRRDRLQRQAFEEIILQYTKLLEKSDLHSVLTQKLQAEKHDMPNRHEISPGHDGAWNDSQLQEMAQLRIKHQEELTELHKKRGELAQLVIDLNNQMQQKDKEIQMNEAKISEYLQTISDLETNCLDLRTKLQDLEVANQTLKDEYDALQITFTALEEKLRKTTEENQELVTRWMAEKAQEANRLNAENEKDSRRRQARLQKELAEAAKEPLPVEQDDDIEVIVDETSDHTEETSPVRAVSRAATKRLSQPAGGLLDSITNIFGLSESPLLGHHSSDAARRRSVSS
UniProt Q676U5: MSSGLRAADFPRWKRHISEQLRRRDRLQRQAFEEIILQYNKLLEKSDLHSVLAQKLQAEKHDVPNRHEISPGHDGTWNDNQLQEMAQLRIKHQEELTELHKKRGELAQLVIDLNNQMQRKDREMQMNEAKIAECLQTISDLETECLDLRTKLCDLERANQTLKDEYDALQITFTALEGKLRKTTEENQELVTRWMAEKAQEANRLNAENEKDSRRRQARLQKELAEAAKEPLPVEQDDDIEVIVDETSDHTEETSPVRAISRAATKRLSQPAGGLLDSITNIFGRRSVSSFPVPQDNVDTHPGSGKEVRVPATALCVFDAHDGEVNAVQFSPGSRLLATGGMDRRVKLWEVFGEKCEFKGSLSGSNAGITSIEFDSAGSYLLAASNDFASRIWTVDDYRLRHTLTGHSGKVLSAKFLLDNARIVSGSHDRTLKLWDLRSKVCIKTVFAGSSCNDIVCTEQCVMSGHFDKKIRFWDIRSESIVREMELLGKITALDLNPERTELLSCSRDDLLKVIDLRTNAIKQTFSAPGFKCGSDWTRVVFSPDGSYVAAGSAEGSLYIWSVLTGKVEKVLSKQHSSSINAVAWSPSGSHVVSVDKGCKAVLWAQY

Assays:
[1] = target: T1, MYC-SPATA33 (mouse) (UniProt Q8C624); assay: co-IP; HEK293T cells co-transfected with both tagged constructs, lysed after 48 h in IP buffer (50 mM Tris-HCl pH 8.0, 0.15 M NaCl, 1 mM EGTA, 0.5% NP-40); precipitation by one tag (anti-MYC, anti-FLAG or anti-GFP), western blot for the other
T1 sequence: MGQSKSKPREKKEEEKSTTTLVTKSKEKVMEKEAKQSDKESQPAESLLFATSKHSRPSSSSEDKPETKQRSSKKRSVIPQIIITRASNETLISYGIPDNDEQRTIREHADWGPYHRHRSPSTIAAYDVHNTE

[2] = target: T2, 3xFLAG-SPATA33 (mouse) (UniProt Q8C624); assay: co-IP; HEK293T cells transfected with p3xFLAG-SPATA33, whole cell lysate after 48 h; precipitation with anti-ATG16L1 or anti-FLAG, western blot with anti-ATG16L1 or anti-FLAG; ATG16L1 endogenous
T2 sequence: T1 sequence

[3] = target: Cherry-FLAG-ATG16L1 (UniProt Q8C0J2); assay: co-IP; HEK293T cells co-transfected with both tagged constructs, lysed after 48 h in IP buffer (50 mM Tris-HCl pH 8.0, 0.15 M NaCl, 1 mM EGTA, 0.5% NP-40); precipitation by one tag (anti-MYC, anti-FLAG or anti-GFP), western blot for the other
[4] = target: T3, 3xFLAG-VDAC2 (UniProt Q60930); assay: as above
T3 sequence: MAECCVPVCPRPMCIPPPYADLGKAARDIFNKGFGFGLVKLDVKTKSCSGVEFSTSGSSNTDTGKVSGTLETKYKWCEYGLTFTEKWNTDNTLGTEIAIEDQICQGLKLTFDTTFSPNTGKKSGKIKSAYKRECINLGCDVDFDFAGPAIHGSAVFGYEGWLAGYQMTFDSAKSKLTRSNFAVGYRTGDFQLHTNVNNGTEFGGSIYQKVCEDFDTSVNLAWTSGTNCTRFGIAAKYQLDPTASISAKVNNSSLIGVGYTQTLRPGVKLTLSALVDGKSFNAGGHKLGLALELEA

binding [1]: binds
Molecule: Cherry-FLAG-ATG16L1 (from UniProt Q8C0J2-3 1-623)

binding [4]: binds
B2: GFP-SPATA33 (protein, UniProt Q8C624 1-132)
chain: T1 sequence

binding [4]: no binding | binding [3]: binds
B3: GFP-N-SPATA33 (domain or fragment, UniProt Q8C624 1-60)
chain: MGQSKSKPREKKEEEKSTTTLVTKSKEKVMEKEAKQSDKESQPAESLLFATSKHSRPSSS

The next lines start with the molecule.

Molecule: endogenous ATG16L1 (HEK293T) (from UniProt Q676U5 1-607)
binding [2]: binds

Molecule: GFP-N-ATG16L1 (from UniProt Q8C0J2-3 1-306) (domain or fragment)
binding [1]: no binding

B1: MYC-SPATA33 (protein, UniProt Q8C624 1-132)
chain: T1 sequence
binding [3]: binds
